In PMC6497308 one finds binding data, which are given here for 2 molecules.

These are yes or no findings as the source states them, for the method shown. Some results given as binding are weak or reduced against the parent protein; the word gives no strength. Tags and fused reporters may be left off the sequences shown.

Assay [1] concerns the target ATP1A3 expressed alone in HEK293 (cells not expressing ATP1B2) (UniProt P13637). The assay is described as follows: binding of added retinoschisin to transfected cells, Western blot of washed cells; HEK293 cells 48 h after transfection incubated with recombinant retinoschisin (or RS1-R141H) for 1 h, intensive washing, Western blot of cell pellet lysates with anti-retinoschisin. (In general: Immunoblotting shows a protein as a band on a membrane.)

Assay [2] concerns the target Na/K-ATPase of ATP1A3 and ATP1B2 patch I region 1 mutant (UniProt P13637). Described as above.
The target of assay [3] is Na/K-ATPase of ATP1A3 and ATP1B2 patch I region 1+2+3 triple mutant (UniProt P13637). The assay is described as above.
Assay [4] has as its target Na/K-ATPase of ATP1A3 and ATP1B2 patch I region 1+2+3+4 quadruple mutant (UniProt P13637). The assay is described as above.
The target of assay [5] is Na/K-ATPase of ATP1A3 and ATP1B2 patch I region 1+2+4 triple mutant (UniProt P13637). The assay is described as above.
The target of assay [6] is Na/K-ATPase of ATP1A3 and ATP1B2 patch I region 1+3+4 triple mutant (UniProt P13637). The assay is described as above.
The target in assay [7] is Na/K-ATPase of ATP1A3 and ATP1B2 patch I region 1+4 double mutant (UniProt P13637). The assay is described as above.
The target of assay [8] is Na/K-ATPase of ATP1A3 and ATP1B2 patch I region 2 mutant (UniProt P13637). The assay is described as above.
The target of assay [9] is Na/K-ATPase of ATP1A3 and ATP1B2 patch I region 2+3+4 triple mutant (UniProt P13637). The assay is described as above.
For assay [10], the target named is Na/K-ATPase of ATP1A3 and ATP1B2 patch I region 2+4 double mutant (UniProt P13637). The assay is described as above.
In assay [11] the target is Na/K-ATPase of ATP1A3 and ATP1B2 patch I region 3 mutant (UniProt P13637). Described as above.
Assay [12] addresses Na/K-ATPase of ATP1A3 and ATP1B2 patch I region 3+4 double mutant (UniProt P13637). The description is as above.
Assay [13] addresses Na/K-ATPase of ATP1A3 and ATP1B2 patch I region 4 mutant (UniProt P13637). Described as above.
The target of assay [14] is Na/K-ATPase of ATP1A3 and ATP1B2 patch II region 1 mutant (UniProt P13637). The assay is described as above.
For assay [15], the target named is Na/K-ATPase of ATP1A3 and ATP1B2 patch II region 3 mutant (UniProt P13637). The description is as above.
Assay [16] has as its target Na/K-ATPase of ATP1A3 and ATP1B2 patch II regions 1+3 double mutant (UniProt P13637). The assay is described as above.
Assay [17] has as its target Na/K-ATPase of ATP1A3 and ATP1B2-T240A (UniProt P13637). Described as above.
For assay [18], the target named is Na/K-ATPase of ATP1A3 and ATP1B2-T240L (ATP1B2 patch II, region 4 mutant) (UniProt P13637). The assay is described as above.
The target of assay [19] is Na/K-ATPase of ATP1A3 and ATP1B2-T240S (UniProt P13637). Described as above.
For assay [20], the target named is Na/K-ATPase of ATP1A3 and glycosylation mutant ATP1B2-N118Q (UniProt P13637). Described as above.
Assay [21] has as its target Na/K-ATPase of ATP1A3 and glycosylation mutant ATP1B2-N153Q (UniProt P13637). The description is as above.
The target of assay [22] is Na/K-ATPase of ATP1A3 and glycosylation mutant ATP1B2-N159Q (UniProt P13637). The assay is described as above.
The target in assay [23] is Na/K-ATPase of ATP1A3 and glycosylation mutant ATP1B2-N193Q (UniProt P13637). Described as above.
Assay [24] has as its target Na/K-ATPase of ATP1A3 and glycosylation mutant ATP1B2-N197Q (UniProt P13637). The description is as above.
For assay [25], the target named is Na/K-ATPase of ATP1A3 and glycosylation mutant ATP1B2-N250Q (UniProt P13637). The assay is described as above.
The target in assay [26] is Na/K-ATPase of ATP1A3 and glycosylation mutant ATP1B2-N96Q (UniProt P13637). The assay is described as above.
In assay [27] the target is retinal Na/K-ATPase (ATP1A3 and ATP1B2) from transfected HEK293, enzymatically deglycosylated with PNGase F (UniProt P13637). Put plainly: binding of added retinoschisin to enriched membrane fractions, Western blot; enriched plasma membrane fractions (PNGase F or control buffer, 37°C, 18 h) incubated with recombinant retinoschisin for 1 h, intensive washing, centrifugation at 16,000xg for 15 min at 4°C, Western blot.

B1: retinoschisin (protein, UniProt O15537 24-224)
chain: STEDEGEDPWYQKACKCDCQGGPNALWSAGATSLDCIPECPYHKPLGFESGEVTPDQITCSNPEQYVGWYSSWTANKARLNSQGFGCAWLSKFQDSSQWLQIDLKEIKVISGILTQGRCDIDEWMTKYSVQYRTDERLNWIYYKDQTGNNRVFYGNSDRTSTVQNLLRPPIISRFIRLIPLGWHVRIAIRMELLECVSKCA
With B1, the binding entry in [1] is reported as “no binding”; in assay [2], “binds”; in assay [3], “binds”; in assay [4], “no binding”; in [5], “no binding”; in [6], “no binding”. Also, the binding entry in assay [7] is “binds”; in assay [8], “binds”; in assay [9] it was “no binding”; in [10] it was “binds”; in assay [11], “binds”; in assay [12], “no binding”. Besides, the binding entry was “binds” in assay [13]; “binds” in assay [14]; “binds” in assay [15]; “binds” in assay [16]; “no binding” in assay [17]; “no binding” in assay [18]. Besides, the binding result in assay [19], in assay [20], in assay [21], in [22], in [23] and in [24] was “binds” throughout. The binding result in assay [25], in assay [26] and in [27] was “binds” in each case.

B2: retinoschisin mutant RS1-R141H (protein, UniProt O15537 24-224)
chain: STEDEGEDPWYQKACKCDCQGGPNALWSAGATSLDCIPECPYHKPLGFESGEVTPDQITCSNPEQYVGWYSSWTANKARLNSQGFGCAWLSKFQDSSQWLQIDLKEIKVISGILTQGHCDIDEWMTKYSVQYRTDERLNWIYYKDQTGNNRVFYGNSDRTSTVQNLLRPPIISRFIRLIPLGWHVRIAIRMELLECVSKCA
Turning to B2, the binding entry in assay [1] is listed as “no binding”.
